Laboratory results published in patent publication US20260209325A1, “SELECTIVE AND POTENT INHIBITORY ANTIBODIES OF MYOSTATIN ACTIVATION” (SCHOLAR ROCK, INC., priority 2022, published 2026).

B1: Ab124: anti-pro/latent myostatin antibody; CDR sequences in Table 2d (antibody)
heavy: QVQLQESGPGLVKPSQTLSLTCTVSGGSISSSPYSWSWIRQPPGKGLEWIGYVDLAGSTDYNPSLKSRVTMSVDTSKNQFSLKVNSVTAADTAVYYCARALSSRSSEWLLDQYTMDVWGQGTTVTVSSASTKGPSVFPLAPCSRSTSESTAALGCLVKDYFPEPVTVSWNSGALTSGVHTFPAVLQSSGLYSLSSVVTVPSSSLGTKTYTCNVDHKPSNTKVDKRV[human IgG4 Fc with S228P (EU numbers) left out]
light: EIVMTQSPATLSLSPGERATLSCRASQSIGINLAWYQQKPGQAPRLLIYGVSNRATGIPARFSGSGSGTDFTLTISSLEPEDFAVYYCQQYGTARLTFGGGTKVEIKRTVAAPSVFIFPPSDEQLKSGTASVVCLLNNFYPREAKVQWKVDNALQSGNSQESVTEQDSKDSTYSLSSTLTLSKADYEKHKVYACEVTHQGLSSPVTKSFNRGEC
B2: Ab125: anti-pro/latent myostatin antibody; CDR sequences in Table 2d (antibody)
heavy: EVQLVQSGAEVKKPGESLKISCKGSGNRISDYWMNWVRQVPGKGLEWMGNIYPGYSDATYNRKFKGQVTISADKSISTAYLQWSSLKASDTAIYYCARGRDGYNYFAAFDIWGQGTMVTVSSASTKGPSVFPLAPCSRSTSESTAALGCLVKDYFPEPVTVSWNSGALTSGVHTFPAVLQSSGLYSLSSVVTVPSSSLGTKTYTCNVDHKPSNTKVDKRV[human IgG4 Fc with S228P (EU numbers) left out]
light: EIVLTQSPATLSLSPGERATLSCRASQSVASSYLAWYQQKPGQAPRLLIYDTSSRAAGIPARFSGSGSGTDFTLTISSLEPEDFAVYYCHQYGSSLTTFGGGTKVEIKRTVAAPSVFIFPPSDEQLKSGTASVVCLLNNFYPREAKVQWKVDNALQSGNSQESVTEQDSKDSTYSLSSTLTLSKADYEKHKVYACEVTHQGLSSPVTKSFNRGEC

Columns and labels:
Pro + Furin = Pro + Furin (Homo sapiens, UniProt O14793); assay: functional ELISA: myostatin inhibition activity, Pro + Furin; format: biochemical; settings: Table 8
Experimental: To measure inhibitory potency of the novel antibodies against myostatin activation, an ELISA-based in vitro potency assay (“functional ELISA”) was carried out. First, each of the test antibodies was preincubated with recombinant human latent myostatin to let immune complexes form. Subsequently, mTLL-2 was added to the immune mixture to trigger the release of mature myostatin by proteolytic cleavage. If the test antibody is capable of blocking mTLL-2-induced activation, mature myostatin is not released from the latent myostatin complex. […] Following mTLL-2 treatment, the amount of free (released) mature myostatin in the presence of test antibodies was measured by ELISA, in which the plates were coated with ActRII-Fc fusion protein, which is a ligand trap serving as the capture reagent. Free mature myostatin present in the assay mixture was captured on the ELISA plate, and the amount of bound mature myostatin was measured by biotin-streptavidin-based detection reagents in 11 data points.

murine pro-myostatin = murine pro-myostatin (Mus musculus, UniProt O08689); assay: Biacore 8k SPR binding affinity, murine pro-myostatin
From the text: (§1) The Biacore™ 8k SPR system was utilized to evaluate the binding affinity of myostatin antibodies to biotinylated human, murine, and cyno pro-myostatin. Biotin CAPture kit and sensor chips (Cytiva) were utilized in these experiments to immobilize the various antigens, followed by flowing a range of concentrations of each of the test antibodies.

cyno pro-myostatin = cyno pro-myostatin (Macaca fascicularis, UniProt Q95J86); assay: Biacore 8k SPR binding affinity, cyno pro-myostatin; set-up: species or system cynomolgus monkey
From the text: as §1

human pro-myostatin = human pro-myostatin (Homo sapiens, UniProt O14793); assay: Biacore 8k SPR binding affinity, human pro-myostatin
From the text: as §1

Molecule	IC50 (Pro + Furin)	Ka (murine pro-myostatin)	Kd (1/s) (murine pro-myostatin)	Ka (cyno pro-myostatin)	Kd (cyno pro-myostatin)	Kd (1/s) (cyno pro-myostatin)	Ka (human pro-myostatin)	Kd (human pro-myostatin)	Kd (1/s) (human pro-myostatin)
B1	1.08 nM	139000 M⁻¹ s⁻¹	0.000454 s⁻¹	176000 M⁻¹ s⁻¹	1.57 nM	0.000277 s⁻¹	1.54e+06 M⁻¹ s⁻¹	1.84 nM	0.000285 s⁻¹
B2	0.318 nM	3.29e+06 M⁻¹ s⁻¹	0.000411 s⁻¹	4.01e+06 M⁻¹ s⁻¹	0.088 nM	0.000354 s⁻¹	3.58e+06 M⁻¹ s⁻¹	0.103 nM	0.000371 s⁻¹
